# PubChem BioAssay AID488969 (Vanderbilt High Throughput Screening Facility, 2010)
# Whole data set: some 110,000 compounds, median “z-score” near -0.1, cut for the highest 2% near 2. Some of the results follow. The source made the active and inactive calls.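 Rule for the calls: active = z-score in the third read window above 3 or below -3; inactive = the rest.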 Residues, ends and D or L forms follow the SMILES beside them. *: point of attachment. Boc = CC(C)(C)OC(=O)*
# Molecular target: Metabotropic glutamate receptor 8 (Rattus norvegicus) (UniProt P70579)
# Chain of UniProt P70579 (P70579 whole entry, looked up): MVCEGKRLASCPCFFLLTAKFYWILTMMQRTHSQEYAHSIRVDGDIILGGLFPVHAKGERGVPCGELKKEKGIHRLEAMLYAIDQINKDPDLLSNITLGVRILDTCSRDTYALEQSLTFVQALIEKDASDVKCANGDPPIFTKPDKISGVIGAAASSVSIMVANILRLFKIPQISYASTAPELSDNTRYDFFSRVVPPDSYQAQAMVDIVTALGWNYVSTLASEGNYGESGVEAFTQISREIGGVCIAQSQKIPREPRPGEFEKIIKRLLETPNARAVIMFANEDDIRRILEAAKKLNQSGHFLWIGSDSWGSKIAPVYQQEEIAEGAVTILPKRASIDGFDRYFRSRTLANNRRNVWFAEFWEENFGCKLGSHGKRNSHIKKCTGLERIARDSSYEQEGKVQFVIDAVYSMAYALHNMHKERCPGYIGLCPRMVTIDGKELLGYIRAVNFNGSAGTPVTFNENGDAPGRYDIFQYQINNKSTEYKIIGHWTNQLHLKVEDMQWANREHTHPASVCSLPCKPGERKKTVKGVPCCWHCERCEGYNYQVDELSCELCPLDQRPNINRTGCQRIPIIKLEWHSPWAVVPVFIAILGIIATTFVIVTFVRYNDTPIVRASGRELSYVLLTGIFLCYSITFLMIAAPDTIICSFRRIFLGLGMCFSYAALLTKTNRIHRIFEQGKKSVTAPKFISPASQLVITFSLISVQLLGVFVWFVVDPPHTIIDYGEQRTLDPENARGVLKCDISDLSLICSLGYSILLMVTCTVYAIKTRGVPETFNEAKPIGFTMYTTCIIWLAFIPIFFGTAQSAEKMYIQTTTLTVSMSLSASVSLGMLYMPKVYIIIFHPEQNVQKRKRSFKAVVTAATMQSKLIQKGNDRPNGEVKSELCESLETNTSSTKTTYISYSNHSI
# Experiment: rat mGluR8 modulators via GIRK flux, primary screen, cell-based, thallium flux, HTS (AID 488969)
# Conditions: HEK293 rat mGluR8, GIRK (G protein-gated inwardly rectifying potassium channel) thallium flux, FluoZin2; at 10 µM; stronger effect = higher value; submaximal glutamate (EC20) added with thallium
row,Compound,z-score
1,COc1ccccc1OCCNc1cc(N2CCOCC2)ccc1[N+](=O)[O-],1.94
2,O=C(NC(=S)Nc1ccc(Cc2ccncc2)cc1)c1ccccc1Cl,-0.459
3,CC(=O)Nc1ccc2nc(C)n(Cc3ccc(Cl)cc3)c(=O)c2c1,-0.376
4,c1ccc(-c2csc(N3CCCCCC3)n2)cc1,0.299
5,CN(CCOC(=O)c1ccc2c(c1)OCCO2)C(C)(C)C,0.228
6,CC(CN1CCN(C)CC1)OC(=O)c1ccccc1 (stereo not drawn),-0.2
7,CC(=O)Nc1cccc(NC(=O)CCn2c(=O)sc3ccccc32)c1,-0.759
8,Cc1cc(C)c2c(-n3cccc3)nn(CC#N)c2n1,-0.306
9,COc1ccc(C(=O)CSc2nnc(CN3CCCCC3)n2-c2ccc(F)cc2)cc1OC,-0.157
10,O=C(/C=C/Nc1ccc(F)c(F)c1)c1cccs1,1.32
11,Cc1ccnc(NC(=O)CN(C)S(=O)(=O)c2cccc3nsnc23)c1,-0.106
12,NC(CSS(=O)(=O)O)=NCCC12CC3CC(CC(O)(C3)C1)C2,-0.0219
13,Nc1ncnc2nc(SCCN3CCCCC3)[nH]c12,-0.372
14,CCn1ncc(C2=NOC(C(=O)Nc3cnn(C45CC6CC(CC(C6)C4)C5)c3)C2)c1C (stereo not drawn),0.247
15,O=C(c1cc(-c2ccccn2)nc2c(Cl)cccc12)N1CCN(S(=O)(=O)c2ccccc2)CC1,-0.401
16,N#CC1=C(N)Oc2cc(Nc3ccccc3)ccc2C1c1ccncc1 (stereo not drawn),-0.0347
17,CCOC(=O)/C(C#N)=C/c1c(OCC)n(CC)c2ccccc12,-0.644
18,O=C(NCCCN1CCCC1=O)c1csc2ccccc12,-0.114
19,CCN1CCN(C(c2cccs2)C(C)NC(=O)CC(C)C)CC1 (stereo not drawn),-0.418
20,O=C(CSc1nc2ccc([N+](=O)[O-])cc2[nH]1)NC1CCCCC1,-0.124
21,Cc1cc(C(=O)Nc2ccccc2)oc1C,-0.0105
22,COc1cc(OC)c(NC(=S)Nc2cccc(C)c2)cc1Cl,-0.267

row,Compound,z-score
1,O=C(N1CCOCC1)N1CCN(C(c2ccccc2)c2ccccc2)CC1,-0.304
2,COc1cccc(-c2cc(C(F)(F)F)n3ncc(S(=O)(=O)c4ccccc4)c3n2)c1,-0.112
3,Cc1ccc(Nc2cnn(C34CC5CC(CC(CC(=O)O)(C5)C3)C4)c(=O)c2Cl)cc1C,0.781
4,O=C(NCc1ccccn1)c1cc(S(=O)(=O)N2CCN(c3ccccc3)CC2)ccc1Cl,0.714
5,COC(=O)c1ccc(CSc2nnc(-c3ccncc3)n2Cc2ccccc2)o1,-0.235
6,CC(C)CC(NC(=O)OC(C)(C)C)C(=O)NC(C(=O)N1CCCC1C(N)=O)C(C)C (stereo not drawn) (Boc-Leu-Val-Pro-NH2; configuration not given here),-0.0933
7,Cc1sc(NC(=O)C2CCCCC2C(=O)O)c(C(N)=O)c1-c1ccc(C(C)C)cc1 (stereo not drawn),-0.823
8,N/C(=N\OC(=O)c1ccc(Cl)cc1)c1nonc1N,-0.12
9,Cc1ccc(/C=N/n2c(-c3cccs3)n[nH]c2=S)cc1,active: 10
10,COc1ccccc1-c1nc(C#N)c(NCc2ccc(F)cc2)o1,0.186
11,COc1cc(NC(=S)Nc2cccc(Cl)c2Cl)c(OC)cc1Cl,0.605
12,O=C(CSc1nc2ccccc2o1)Nc1nncs1,0.294
13,COCCn1nnnc1C(c1cccs1)N1CCN(c2nc3ccccc3s2)CC1 (stereo not drawn),-0.204
14,CCCCCNC(=O)CSC1=N/C(=C\c2ccc(Cl)c(Cl)c2)C(=O)N1CC,-0.0131
15,O=C(COC(=O)C1CCN(/C=C/C(=O)C(F)(F)F)CC1)Nc1ccccc1,-0.035
16,Cn1cnnc1Sc1ccc(C(=O)OCC(=O)Nc2ccccc2)cc1[N+](=O)[O-],-0.109
17,Cc1ccc(Cn2nc(C)c(NC(=O)C3(C)CC3(Br)Br)c2C)cc1 (stereo not drawn),-0.0354
18,Cc1c(-c2nnc(SCC(=O)O)n2-c2ccccc2Br)nnn1-c1ccccc1,-0.177
19,Cc1c(NC(=O)CSc2nnc(Nc3ccccc3)s2)c(=O)n(-c2ccccc2)n1C,0.78
20,CCC(C)C(NC(=O)OCc1ccccc1)C(=O)OCN1C(=O)c2ccccc2C1=O (stereo not drawn),-0.104
21,N#Cc1sc2nc(-c3cccs3)cc(-c3ccc(Cl)cc3)c2c1N,-0.0567
22,CC(OC(=O)c1nsc(Cl)c1Cl)C(=O)NCc1ccc2c(c1)OCO2 (stereo not drawn),-0.0924

row,Compound,z-score
1,C(=N\n1cnnc1)/c1ccc(OC2CSC2)cc1,-0.459
2,Cc1ccccc1-n1c(SC(C)C(=O)N2CCN(C)CC2)nc2ccccc2c1=O (stereo not drawn),0.712
3,CCOC(=O)Cn1c(CN(Cc2ccccc2)Cc2ccccc2)nc2c1c(=O)n(C)c(=O)n2C,-0.558
4,O=C(Nc1ccc2c(c1)OCO2)c1ccc(Cl)s1,-0.0699
5,COc1ccccc1OCC(O)CN1C(=O)NC(C)(C)C1=O (stereo not drawn),-0.0712
6,CCOC(=O)NCc1ccc2c(c1)cc(C)n2C,-0.21
7,Cc1cc(Br)cc(C)c1NC(=O)c1ccccc1[N+](=O)[O-],-0.058
8,C=CCOc1c(Br)cc(C2NC(=O)NC(C)=C2C(C)=O)cc1OCC (stereo not drawn),-0.802
9,CCCN1C(=O)C2(C(C(=O)c3ccc(C)o3)=C(O)C(=O)N2CCCN2CCOCC2)c2ccccc21 (stereo not drawn),0.745
10,CCOC(=O)c1oc2c(CN3CCN(C)CC3)c(O)ccc2c(=O)c1-c1ccc(Br)cc1,-0.3
11,N#Cc1c(Cl)cccc1-n1ccnc1,0.187
12,COc1cccc(OCC(O)CN2CCN(c3ccccn3)CC2)c1 (stereo not drawn),0.0209
13,O=C(Nc1cccnc1)C(Cc1ccccc1)n1cccc1 (stereo not drawn),0.0231
14,COc1ccc(/C=N/NC(=O)COc2ccc3ccccc3c2)c(C(=O)O)c1OC,-0.0431
15,CCOC(=O)c1cc(=O)n(Cc2ccccc2C)c2ccccc12,-0.255
16,CN(C)S(=O)(=O)c1ccc(C(=O)NCCSc2ccccc2)cc1,-0.262
17,N#Cc1cnc(SCC(=O)c2ccccc2)nc1N,0.0176
18,Nc1cccc2c1C(=O)N(C(=O)c1ccc(Cl)c(S(=O)(=O)N3CCCCCC3)c1)C2=O,-0.285
19,CC1(C)CC(=O)C(C=Nc2ccc(Cl)cn2)=C(O)C1,-0.475
20,CC(=O)NCC(=O)OCC(=O)c1ccc(C)c(C)c1,0.748
21,CC(=O)c1ccc(NC(=O)C(C)OC(=O)C(C)Oc2cccc(C)c2)cc1 (stereo not drawn),-0.117
22,O=c1oc(-c2ccc(F)cc2)nc2ccsc12,-2.44

row,Compound,z-score
1,C=CCNC(=S)N1CCN(c2ncc3c(=O)c(C(=O)O)cn(CC)c3n2)CC1,-0.0345
2,CCOC(=O)N1CCN(Cc2nc3c(c(=O)[nH]c(=O)n3C)n2Cc2cc(C)ccc2C)CC1,0.104
3,Cc1sc2ncnc(Sc3ccccc3C(=O)Nc3ccc(C#N)cc3)c2c1C,-0.758
4,CCN(CC)CCN1C(=O)C(=O)/C(=C(/O)c2ccc(Cl)cc2)C1c1ccncc1 (stereo not drawn),0.0181
5,CC(=O)Nc1ccc(NC(=O)C2CCN(S(=O)(=O)c3cccc4nonc34)CC2)cc1,-0.0835
6,COc1ccc(CCNc2nc3c(c(=O)n(C)c(=O)n3C)n2C)cc1OC,-0.21
7,O=C(NC(=S)Nc1ccc(N2CCOCC2)cc1)c1cccc(Cl)c1,active: 4.95
8,CC(=O)Nc1sc(N/N=C\c2cccc(Cl)c2)nc1-c1cccs1,-0.618
9,COc1ccc(C2CC(c3cccs3)=NN2C(=O)CSC2=NN3CCCC(=O)N=C3S2)cc1 (stereo not drawn),-0.108
10,CC1Oc2ccccc2N(CC(=O)c2cccc(Cl)c2)C1=O (stereo not drawn),-0.685
11,CCOc1cc(/C=N/NC(=O)CCCC(=O)NC2CCCCC2)ccc1O,-0.134
12,CSCC[C@H](NC(=O)c1nn(C)c(=O)c2ccccc12)c1nc2ccccc2[nH]1,0.17
13,O=C(c1ccc(CN2CCOCC2)cc1)N1CCN(c2ccccc2F)CC1,0.0451
14,CCN(CC)CCOC(=O)C1(c2ccccc2)CCCC1,0.739
15,CN=C(Nc1ccccc1)SC1CC(=O)N(c2ccc(C(=O)OC)cc2)C1=O (stereo not drawn),-0.385
16,Cc1nc2ccccc2cc1C(=O)NCc1ccco1,-0.218
17,O=C(Cn1cnc2sc(-c3ccccc3)cc2c1=O)NCCc1ccccc1,-0.863
18,COc1ccc(CNC(=O)Nc2cccc3ccccc23)cc1,0.426
19,O=C(c1cc(-c2ccc3c(c2)OCO3)on1)N1CCN(c2ccc(F)cc2)CC1,-0.0803
20,CC(C)N(Cc1nc(-c2ccccc2)no1)C(=O)Cc1ccccc1,-0.833
21,Cc1ccc(CN2C(=O)C3CCCN3c3ccc(S(=O)(=O)N4CCOCC4)cc32)cc1 (stereo not drawn),-0.425
22,CCCCn1nc2cc(C(=O)NCc3ccc4c(c3)OCO4)ccc2c1OCC,-0.318

row,Compound,z-score
1,CC(C)(C)NC(=O)c1ccc2nccnc2c1,0.232
2,Cc1cccc(C)c1NC(=O)CNc1ncnc2sc(C)c(C)c12,0.018
3,CCC(C)C(NC=C1C(=O)OC(C)(C)OC1=O)C(=O)O (stereo not drawn),1.28
4,COc1ccc(C(=O)COC(=O)c2ccc(NC(C)=O)cc2)cc1[N+](=O)[O-],0.099
5,COc1ccc(OC)c(NC(=S)NN2CCOCC2)c1,-0.00883
6,Cc1ccc2nc(N(CCCN(C)C)C(=O)c3sc4ccccc4c3Cl)sc2c1,-0.239
7,CC1CCN(CCOc2ccc(OCc3ccccc3)cc2)CC1,0.306
8,Cc1ccc(C)c(NC(=O)CSc2nc3ccc(N4C(=O)c5ccccc5C4=O)cc3s2)c1,-0.109
9,COc1ccccc1NC(=O)N(C1CCCC1)C1CCN(C(C)=O)CC1,-0.237
10,C#CC[N+]1(CC#Cc2ccccc2)CCCC1,-0.117
11,C/C(=N\NC(=O)c1cccc(C)c1)c1ccc(N2CCOCC2)cc1,-0.0654
12,CCCCNC(=S)N/N=C1\CCCCc2ccccc21,2.17
13,CCN(CC)S(=O)(=O)c1ccc(N/N=C/c2ccc(OC)c(OC)c2OC)nc1,-0.0561
14,CC(C)c1nnc(NC(=O)c2cccnc2)s1,0.786
15,CCCCCn1c(SCc2ccncc2)nc2cc(C(=O)NCc3ccco3)ccc2c1=O,-0.248
16,CCOC(=O)c1cn(Cc2ccccc2)nn1,-0.0725
17,CC(C)c1nc2cc3ccccc3cc2[nH]1,0.396
18,CC(=O)NC(Cc1c[nH]c2ccccc12)C(=O)Nc1ccc2c(c1)OCO2 (stereo not drawn),-0.54
19,CC(=O)Oc1c(Cl)cc(Cl)cc1/C=C/c1ccc2ccccc2n1,-0.16
20,Cc1cc(C)c2c(c1)cc(C)c1nnc(SCC(=O)Nc3ccc(S(=O)(=O)N4CCCCC4)cc3)n12,-0.14
